Data on 11 compounds can be found in the antibiotic and cytotoxicity screens of Wong et al. (2023).

The structures appear in SMILES notation. The list shows a part of the results.

In the test the test system is S. aureus RN4220. As to the kind of experiment: growth inhibition call (relative growth <= 0.2). The settings on record: 50 µM.
For `COc1ccc2c3c([nH]c2c1)[C@@H](CO)N(C[C@]13CN(Cc2cc(on2)-c2ccccc2)C1)C(=O)Nc1ccc(cc1)F`, the growth inhibition call is “inactive”.

Regarding `C[C@H]1CN([C@@H](C)CO)C(=O)c2cc(NC(=O)C3CCCCC3)ccc2O[C@@H]1CN(C)S(=O)(=O)c1cn(C)cn1`, the growth inhibition call is “inactive”. Next, `C[C@H](CO)N1C[C@H](C)[C@@H](CN(C)Cc2ccc(C(F)(F)F)cc2)Oc2ccc(NC(=O)CCCCCC(=O)Nc3ccccc3N)cc2C1=O`: “inactive”; `C[C@@H]1CN([C@@H](C)CO)C(=O)c2cccc(NC(=O)NC3CCCCC3)c2O[C@@H]1CN(C)Cc1ccc(C(F)(F)F)cc1`: “inactive”. Next, `COc1ccc2c3c(n(c2c1)C)[C@H](CO)N(C[C@]13CCN(CC1)S(=O)(=O)c1ccccc1)C(=O)c1cccnc1`: “inactive”; `O=c1[nH]c2ccc(F)cc2nc1O`: “inactive”; `Cc1ccc2nc(CN)[nH]c2c1`: “inactive”.

As to `C[C@H](CO)N1C[C@H](C)[C@H](CN(C)Cc2ccc(-c3ccccc3)cc2)Oc2ccc(NC(=O)CCC(F)(F)F)cc2C1=O`, the growth inhibition call is “inactive”.

For the compound `C[C@@H]1CN([C@H](C)CO)C(=O)Cc2cc(NS(=O)(=O)c3ccccc3)ccc2O[C@@H]1CN(C)S(=O)(=O)c1ccc(F)cc1`, the growth inhibition call was “inactive”. Next, `Cc1noc(C)c1NC(=O)N(C)C[C@@H]1OCCCC[C@H](C)Oc2ccc(NS(=O)(=O)c3cccs3)cc2C(=O)N([C@@H](C)CO)C[C@@H]1C`: “inactive”; `C[C@@H]1CN([C@H](C)CO)C(=O)c2cc(NC(=O)c3ccncc3)ccc2O[C@@H]1CN(C)Cc1ccc(Oc2ccccc2)cc1`: “inactive”.
